# The supplement of paper PMC11369174, “Proteome-scale characterisation of motif-based interactome rewiring by disease mutations” (Molecular Systems Biology, 2024)
# The list shows a part of the results. Single values of this set are uncertain.
# T1: PEX14_Pex14__O75381_16_84
# T1 chain: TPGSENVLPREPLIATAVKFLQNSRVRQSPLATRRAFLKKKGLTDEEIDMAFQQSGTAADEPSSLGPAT
# T2: RDX_FERM_1_P35241_5_295
# T2 chain: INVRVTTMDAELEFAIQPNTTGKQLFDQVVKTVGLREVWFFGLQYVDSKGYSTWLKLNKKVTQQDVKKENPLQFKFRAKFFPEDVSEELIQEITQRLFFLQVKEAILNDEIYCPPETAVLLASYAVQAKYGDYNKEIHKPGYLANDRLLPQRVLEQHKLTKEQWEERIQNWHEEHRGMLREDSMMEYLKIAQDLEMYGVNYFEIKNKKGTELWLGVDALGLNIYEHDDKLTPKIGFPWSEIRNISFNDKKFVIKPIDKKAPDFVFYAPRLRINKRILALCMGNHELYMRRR
# Biological target: PDCD6IP_Alix-V-domain__Q8WUM4_360_702
# Assay: mutation enrichment score (mutant vs wild-type peptide binding to bait); baits are purified protein domains named by gene / domain / UniProt id / residues; peptides come from disordered regions of human proteins; higher = mutation enhances binding relative to wild type
# Conditions: number of wild-type / mutant comparisons summed (bounds the score): 5; paper call: no_effect; wild-type window: …
row,Binder,mutation enrichment score
1,LSRTVNGYDTSGQRYSPYPQLTAGYQGLLAIVKAAVSSSST [H95L H95L],4.9
2,TSLQNDLQEVPKLYPEFPPKYMCEKLPEPQSFSSAPQHAEV [D121Y D121Y],4.7
3,QGTGVTTYAVHPGVVRSELVLHSSLLCLLWRLFSPFVKTAR [R239L R239L],-5
4,QGTGVTTYAVHPGVVRSELVQHSSLLCLLWRLFSPFVKTAR [R239Q R239Q],-5

# Biological target: PDCD6IP_Bro__Q8WUM4_1_359
# Assay: as above
# Conditions: number of wild-type / mutant comparisons summed (bounds the score): 5; paper call: no_effect; wild-type window: …
row,Binder,mutation enrichment score
1,LDPTVLPLYSLGPSGQLAETLAEVFQALEQLGHQAFRPGQE [P466L P466L],2

# Biological target: T1, PEX14_Pex14__O75381_16_84
# Assay: as above
# Conditions: number of wild-type / mutant comparisons summed (bounds the score): 6; paper call: enhanced; wild-type window: …
row,Binder,mutation enrichment score
1,CQQFSLPENIQLSLFSASFLWNINEYLAVVDAPPLDLRFNP [R136W R136W],6

# Same assay, conditions: number of wild-type / mutant comparisons summed (bounds the score): 6; paper call: no_effect; wild-type window: …
row,Binder,mutation enrichment score
1,SRVVLGEFGVRNVHTTDFPGIYSGYDDAWDQDRFEKNFRVD [N32I N32I],-4.7
2,MRSRVVLGEFGVRNVHTTDFSGNYSGYDDAWDQDRFEKNFR [P30S P30S],3.5
3,AVEEMRSRVVLGEFGVRNVHITDFPGNYSGYDDAWDQDRFE [T26I T26I],-0.96
4,VEEMRSRVVLGEFGVRNVHTADFPGNYSGYDDAWDQDRFEK [T27A T27A],-1.4
5,QKKLMIKQGLLDKHGKPTDSIPATWKQEYVDYSESAKKEVV [T408I T408I],-2.3
6,PKLWMMKGQIEEQKEMMEKAWEAYNQGLKKCPHSTPLWLLL [R729W R729W],3
7,RISIIPQDPILFPGSLRMNLNLLQEHSDEAIWAALETVQLK [D1361N D1361N],-5
8,RISIIPQDPILFPGSLRMNLYLLQEHSDEAIWAALETVQLK [D1361Y D1361Y],-4
9,AGPPPPPPPPHPHARIKLENRLDYGSAWAAAAAQCRYGDLA [P392R P392R],-5.8
10,MPAWGAPFLLWATAEATKDCPSPCTCR [L7P L7P],-4
11,ADKVFTYIFILEMLLKWVAYDYQTYFTNAWCWLDFLIVDVS [G1275D G1275D],2
12,ASDCQLPRWHMNDFFHSFLIEFRVLCGEWIETMWDCMEVAG [V944E V944E],2
13,PFLVQRTVARQVALVECVGKDRYGEVWRGLWHGESVAVKIF [G211D G211D],5
14,EFGNVEAQSRFIFFVDIWTTELDLKWRYKMTIFITAFLGSW [V72E V72E],-3
15,SSDINNMPLQELSNALMAAEWFKEHRDTALYKSLSVPAAST [R1240W R1240W],5
16,LQQQNKRPRTRITDDQLRVLWQYFDINNSPSEEQIKEMADK [R2161W R2161W],6
17,GGSGGGVPEQEDSVLFRRGTDQSDDSDIWDDTALIKAYDKA [G26D G26D],-1

# Biological target: T2, RDX_FERM_1_P35241_5_295
# Assay: as above
# Conditions: number of wild-type / mutant comparisons summed (bounds the score): 6; paper call: no_effect; wild-type window: …
row,Binder,mutation enrichment score
1,RISIIPQDPILFPGSLRMNLYLLQEHSDEAIWAALETVQLK [D1361Y D1361Y],3
